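Tested at 5 concentrations; 48 h exposure; 96-well plates; endpoints linearly interpolated, else capped at highest concentration. GI50: concentration for 50% inhibition of growth.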 Activity calls are given as the source filed them. Cut-off read from the data, not from the text of the source: active = GI50 up to about 1.1 µM and inactive = higher.

This assay has as its system NCI-H322M. In words: growth of human tumour cells (NCI), 48 h.
Turning to `Oc1[nH]c(Nc2ccc(Cl)cc2)nc2ncnc1-2`, the GI50 is inactive: 62.2 µM.

For `CSCSCC(CO)NC(=O)/C=C/c1c(C)nc(O)nc1O` (stereo not drawn), the GI50 is inactive: 20.2 µM.

For `CN(C)Cc1ccc(C(C)(C)C)cc1-c1cc(C(C)(C)C)ccc1CN(C)C`, the GI50 is inactive: 91.8 µM.

On to `CN(C)c1ccc(Cc2cc3c(O)ccc(O)c3cc(Cc3ccc(N(C)C)cc3)c2=O)cc1`, for which the GI50 is inactive: > 64.7 µM.

Consider `COc1ccc(C2=CC(c3ccc4c(c3)OCO4)c3c(c4ccccc4oc3=O)O2)cc1OC` (stereo not drawn), for which the GI50 is inactive: 3.36 µM.

In the case of `CCOC(=O)N[C@H]1CCc2cc(OC)c(OC)c(OC)c2-c2ccc(SC)c(=O)cc21`, the GI50 was active: < 0.01 µM.

In the case of `O=C(Cn1c(=O)oc2ccc(C(=O)c3ccccc3Cl)cc21)c1ccc([N+](=O)[O-])cc1`, the GI50 was inactive: 42.6 µM.

On to `CN(C)Cc1cc(/N=N/c2ccccc2Cl)cc(CN(C)C)c1O`, for which the GI50 is inactive: > 100 µM.

With `CCOc1ccc(/N=N/C2C(=O)N(C(=O)CC(=O)Nc3ccccc3OC)N=C2C)cc1` (stereo not drawn), the GI50 is inactive: > 75.3 µM.

Take `O=C(n1c(=O)n(-c2ccc(Cl)cc2)c(=O)n1C(=O)C(Cl)(Cl)Cl)C(Cl)(Cl)Cl`: the GI50 is inactive: > 100 µM.

For the compound `CCOC(=O)/C(ON)=C(/CC/C(C(=O)OC)=C(\ON)C(=O)OCC)C(=O)OC`, the GI50 is inactive: > 100 µM.

As to `c1csc(-c2csc(-c3cccs3)c2)c1`, the GI50 was inactive: > 100 µM.

Regarding `CCOC(=O)C1=C(C)NC(C)=C(C(=O)OCC)C1c1ccc(C)cc1`, the GI50 was inactive: 27.6 µM.

On to `O=C(O)CCSC(=O)Nc1ccc(/N=N/c2ccccc2)cc1`, for which the GI50 was inactive: > 100 µM.

In the case of `O=C1C=CC(=O)c2cc(Sc3ccccc3)c(=O)ccc21`, the GI50 was inactive: 15.3 µM.

As to `Cc1ccc(/C=C/C(=O)c2sc(C(N)=S)nc2C)cc1`, the GI50 was inactive: > 100 µM.

Consider `OCCCc1cc(O)c2c(c1)C(CO)C(c1ccc(O)c(O)c1)O2` (stereo not drawn), for which the GI50 was inactive: > 100 µM.

As for `CSc1c(C#N)c(=O)n(N)c2c1c(C)nn2-c1ccccc1`, the GI50 was inactive: 24.2 µM.

For the compound `CC[C@]1(Cc2ccc(OC)c(OC)c2)[C@@H]2C[C@@H](C3OCCO3)ON2O[C@H](OC2CCCC2(c2ccccc2)c2ccccc2)[C@@H]1OC(C)=O` (stereo partly drawn), the GI50 was inactive: 45.2 µM.

For the compound `COC(=O)C1CC(C(=O)OC)c2nc3cc([N+](=O)[O-])ccc3nc21` (stereo not drawn), the GI50 was inactive: 77.1 µM.

With `O=C(N/C(=C\c1ccccc1[N+](=O)[O-])c1nc2ccccc2[nH]1)c1ccccc1`, the GI50 is inactive: 93.8 µM.

In the case of `C/C(=N\NC1=NCCN1)c1cn(C2=NCCN2)nc1C`, the GI50 was inactive: > 100 µM.

Regarding `CC1CC(c2ccc(Cl)cc2)=Nc2ccccc2S1` (stereo not drawn), the GI50 is inactive: > 100 µM.

Consider `CCOC(=O)/C=C\[C@H]1OC(C)(C)O[C@H]1[C@H](O)[C@H]1COC(C)(C)O1`, for which the GI50 is inactive: > 100 µM.

Take `CC(=O)NNc1nc(C)c(C(/C=C/c2ccccc2O)=N/N=C(N)N)s1`: the GI50 was inactive: > 100 µM.

Regarding `Cc1cc(C)c2c(=O)n(CN3CCN(c4ccccc4)CC3)sc2n1`, the GI50 is inactive: 45.7 µM.

For the compound `O=C1C(=O)C2(CC1S(=O)(=O)c1ccccc1)c1ccccc1-c1ccccc12` (stereo not drawn), the GI50 was inactive: 23 µM.

For the compound `COc1ccccc1C1C(C(=O)Nc2ccccc2)=C(C)NC(C)=C1C(=O)Nc1ccccc1`, the GI50 is inactive: > 100 µM.

As to `O=C(N/C(=C\c1cc(Cl)ccc1Cl)c1nc2ccccc2[nH]1)c1ccccc1`, the GI50 is inactive: 53.7 µM.

Consider `CN/N=C(/CC(=O)c1sc(NNC(C)=O)nc1C)C(=O)Nc1ccc(OC)cc1OC`, for which the GI50 was inactive: > 100 µM.

In the case of `NC(=O)C(=CN1CC(=O)NC1=S)C(N)=O`, the GI50 is inactive: > 100 µM.

With `CN(C)CCNC(=O)c1cc([N+](=O)[O-])cn1C`, the GI50 is inactive: > 100 µM.

On to `COc1c(-c2ccccc2)oc2c(CP(=O)(OC)OC)cccc2c1=O`, for which the GI50 is inactive: > 100 µM.

Take `CCOC(=O)NC(C(C(=O)OCC)C(=O)OCC)(C(F)(F)F)C(F)(F)F`: the GI50 is inactive: > 100 µM.

Take `COC1OC2COC(=O)c3cc(O)c(O)c(O)c3-c3c(cc(O)c(O)c3O)C(=O)OC2C(O)C1O` (stereo not drawn): the GI50 was inactive: > 100 µM.

Consider `CN(c1ccc(Cl)cc1)S(=O)(=O)c1ccccc1`, for which the GI50 is inactive: > 100 µM.

As for `CCOc1ccccc1NC(=O)C(=O)CC(=O)c1c(C)[n+]([O-])c2ccccc2[n+]1[O-]`, the GI50 was inactive: 61.5 µM.

Take `O=C(/C=C1\Nc2ccccc2N\C1=C/C(=O)c1ccc(F)cc1)c1ccc(F)cc1`: the GI50 is inactive: > 100 µM.

Consider `N#CC(Cc1ccccc1)N(CCC1=CCCCC1)Cc1ccccc1` (stereo not drawn), for which the GI50 was inactive: > 100 µM.

On to `CN(CCCNCc1ccccn1)Cc1ccccc1O`, for which the GI50 is inactive: 36.6 µM.

With `C=CCc1oc(C)nc1CCCC`, the GI50 is inactive: > 100 µM.

For the compound `CC(=O)Oc1cc2c(=O)oc3c(OC(C)=O)c(OC(C)=O)c(OC(C)=O)c4c(=O)oc(c1OC(C)=O)c2c34`, the GI50 was inactive: 49.5 µM.

With `O=C(N/C(=C/c1ccc(Cl)cc1)c1nc2ccccc2c(=O)n1Nc1ccc([N+](=O)[O-])cc1[N+](=O)[O-])c1ccccc1`, the GI50 is inactive: > 100 µM.

As to `CC(CNC(N)=O)NC(N)=O` (stereo not drawn), the GI50 was inactive: > 100 µM.

Regarding `CC(C)(C)C(=O)OCC(COC(=O)C(C)(C)C)[N+](=O)[O-]`, the GI50 is inactive: > 100 µM.

For `O=C1CCCC1CC(CN1CCOCC1)Sc1nnnn1-c1ccccc1` (stereo not drawn), the GI50 is inactive: > 100 µM.

Take `CC1(C)CCCCCCC2OC2CCCCCC(C)(C)C1=O` (stereo not drawn): the GI50 is inactive: > 57.1 µM.

Consider `COc1ccccc1NC(=O)CC(=O)N1N=C(N2c3ccccc3Sc3ccccc32)CC1c1ccccc1` (stereo not drawn), for which the GI50 was inactive: > 100 µM.

Turning to `CC(=O)c1c(C)cc2cccc(OC3OC(CO)C(O)C(O)C3O)c2c1O.CC1OC(O)C(O)C(O)C1O` (stereo not drawn), the GI50 was inactive: > 100 µM.

Turning to `NNC(=O)CC(=O)Nc1ccc(S(=O)(=O)c2ccc(NC(=O)CC(=O)NN)cc2)cc1`, the GI50 was inactive: > 100 µM.

Consider `C(=N\Nc1ccccc1)/c1nc2ccccc2nc1/C=N/Nc1ccccc1`, for which the GI50 is inactive: 17.4 µM.

As for `CCOCc1c(C)cc(C)c(C2C(C(=O)c3ccccc3)N3c4ccccc4C=CC3C2(C#N)C(=O)OCC)c1C` (stereo not drawn), the GI50 was inactive: > 100 µM.

On to `O=C(O)CNC(=O)C(CSC(=O)OCC1c2ccccc2-c2ccccc21)NC(=O)CCC(NC(=O)OCC1c2ccccc2-c2ccccc21)C(=O)O` (stereo not drawn), for which the GI50 was inactive: 49.8 µM.

`C=C1C(=O)C23CC1CCC2C12CO[C@@]3(O)[C@@H](O)C1C(C)(C)C=CC2=O` (stereo partly drawn): the GI50 is inactive: 4.74 µM.

For the compound `O=C(OC1CCC(=C2SCCCS2)[C@H]1C1SCCCS1)c1ccccc1` (stereo partly drawn), the GI50 is inactive: 97.7 µM.

`CNC(=O)C(NC(=O)[C@H](CC(C)C)NC(=O)[C@@H](S)CCN1C(=O)N(C)C(C)(C)C1=O)C(C)(C)C` (stereo partly drawn): the GI50 was inactive: > 100 µM.

On to `O=C(O)CCC(NC(=O)/C(=C/c1ccccc1)NC(=O)c1ccccc1)C(=O)O` (stereo not drawn), for which the GI50 was inactive: > 100 µM.

`CC(C)=CCC(O)C1=CC(=O)c2c(O)ccc(O)c2C1=O` (stereo not drawn): the GI50 was inactive: 2.39 µM.

For the origin of these results see ChEMBL document CHEMBL1201862, “PubChem BioAssay data set” (2004).
